# Results from paper PMC8771551.
# Chains of the proteins cited; added tags and fusions are not shown. Lines headed by an entry give the natural chain unless they say otherwise; changes in a name come on top. Residues count along the entry.
# UniProt Q13887: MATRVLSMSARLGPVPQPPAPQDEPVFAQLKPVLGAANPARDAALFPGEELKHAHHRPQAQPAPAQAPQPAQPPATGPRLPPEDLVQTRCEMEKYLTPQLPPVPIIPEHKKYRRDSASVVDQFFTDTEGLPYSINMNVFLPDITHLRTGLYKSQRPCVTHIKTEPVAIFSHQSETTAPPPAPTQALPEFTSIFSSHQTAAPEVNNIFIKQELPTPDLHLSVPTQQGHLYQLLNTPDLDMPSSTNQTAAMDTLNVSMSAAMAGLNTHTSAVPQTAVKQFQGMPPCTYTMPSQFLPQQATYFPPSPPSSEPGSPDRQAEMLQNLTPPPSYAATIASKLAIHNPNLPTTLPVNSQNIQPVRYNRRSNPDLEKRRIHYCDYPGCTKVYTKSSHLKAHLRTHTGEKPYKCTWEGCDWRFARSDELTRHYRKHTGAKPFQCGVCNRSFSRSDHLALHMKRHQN
# Flag-KLF5-ΔC: residues 1-245 of Q13887
# UniProt Q13418: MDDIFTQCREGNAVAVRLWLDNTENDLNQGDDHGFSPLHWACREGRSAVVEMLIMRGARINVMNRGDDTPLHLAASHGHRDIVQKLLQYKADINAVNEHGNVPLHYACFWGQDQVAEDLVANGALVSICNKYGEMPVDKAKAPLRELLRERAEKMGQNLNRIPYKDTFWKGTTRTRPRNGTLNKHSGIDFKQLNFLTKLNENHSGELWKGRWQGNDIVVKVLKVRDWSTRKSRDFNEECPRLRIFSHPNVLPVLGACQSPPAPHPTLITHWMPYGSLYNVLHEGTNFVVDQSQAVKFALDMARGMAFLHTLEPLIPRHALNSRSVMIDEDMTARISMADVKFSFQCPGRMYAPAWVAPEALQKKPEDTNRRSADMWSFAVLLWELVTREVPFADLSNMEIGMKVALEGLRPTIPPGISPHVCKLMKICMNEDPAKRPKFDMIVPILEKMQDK
# Results are given in words; binding and its absence hold for the method and conditions named. For part of these data: In cells and extracts the contact can be indirect. Some entries that bind do so weakly or less than the wild type. For part of these data: Where a sequence is shown, tags or fusion partners need not be part of it.
# T1: endogenous α-Catulin (human (endogenous in CL1-5)) (UniProt Q9UBT7)
# T1 sequence: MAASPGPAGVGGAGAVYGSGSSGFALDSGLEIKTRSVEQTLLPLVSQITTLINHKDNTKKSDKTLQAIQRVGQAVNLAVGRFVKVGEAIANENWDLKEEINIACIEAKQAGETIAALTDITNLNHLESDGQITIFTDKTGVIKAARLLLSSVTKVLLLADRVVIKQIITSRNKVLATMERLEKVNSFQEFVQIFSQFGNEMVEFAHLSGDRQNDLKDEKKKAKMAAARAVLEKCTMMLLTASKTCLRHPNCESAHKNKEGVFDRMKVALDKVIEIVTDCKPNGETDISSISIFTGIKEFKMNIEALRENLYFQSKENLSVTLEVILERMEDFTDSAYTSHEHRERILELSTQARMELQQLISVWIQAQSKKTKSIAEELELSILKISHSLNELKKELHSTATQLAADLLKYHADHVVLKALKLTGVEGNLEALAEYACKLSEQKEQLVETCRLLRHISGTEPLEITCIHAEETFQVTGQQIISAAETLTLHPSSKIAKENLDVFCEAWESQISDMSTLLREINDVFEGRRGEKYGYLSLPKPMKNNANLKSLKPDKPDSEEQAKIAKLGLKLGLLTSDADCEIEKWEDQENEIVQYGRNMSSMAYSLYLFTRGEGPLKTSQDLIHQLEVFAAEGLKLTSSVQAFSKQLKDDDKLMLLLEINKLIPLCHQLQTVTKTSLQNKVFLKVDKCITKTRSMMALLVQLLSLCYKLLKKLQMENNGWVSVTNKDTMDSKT
# T2: α-Catulin (yeast two-hybrid bait) (UniProt Q9UBT7)
# T2 sequence: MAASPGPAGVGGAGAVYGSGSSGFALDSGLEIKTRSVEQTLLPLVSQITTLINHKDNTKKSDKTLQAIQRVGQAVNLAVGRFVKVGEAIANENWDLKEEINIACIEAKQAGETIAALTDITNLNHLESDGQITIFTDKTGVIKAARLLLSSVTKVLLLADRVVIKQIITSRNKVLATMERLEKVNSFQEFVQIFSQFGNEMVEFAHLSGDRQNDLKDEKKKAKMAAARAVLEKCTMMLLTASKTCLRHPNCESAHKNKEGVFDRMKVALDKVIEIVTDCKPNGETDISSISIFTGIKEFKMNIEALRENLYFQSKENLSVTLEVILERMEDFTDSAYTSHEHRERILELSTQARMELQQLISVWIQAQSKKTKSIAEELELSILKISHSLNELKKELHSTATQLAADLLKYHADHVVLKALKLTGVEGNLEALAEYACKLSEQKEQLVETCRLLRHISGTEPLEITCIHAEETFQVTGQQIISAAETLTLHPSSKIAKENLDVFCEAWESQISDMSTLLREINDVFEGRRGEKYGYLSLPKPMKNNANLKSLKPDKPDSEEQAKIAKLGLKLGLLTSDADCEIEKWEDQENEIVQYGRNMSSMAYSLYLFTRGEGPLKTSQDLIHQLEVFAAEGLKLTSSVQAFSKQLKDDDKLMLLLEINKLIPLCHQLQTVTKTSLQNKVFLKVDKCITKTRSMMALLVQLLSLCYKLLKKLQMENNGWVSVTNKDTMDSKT
# T3: Flag-α-Catulin-ΔC (1-260) (UniProt Q9UBT7)
# T3 sequence: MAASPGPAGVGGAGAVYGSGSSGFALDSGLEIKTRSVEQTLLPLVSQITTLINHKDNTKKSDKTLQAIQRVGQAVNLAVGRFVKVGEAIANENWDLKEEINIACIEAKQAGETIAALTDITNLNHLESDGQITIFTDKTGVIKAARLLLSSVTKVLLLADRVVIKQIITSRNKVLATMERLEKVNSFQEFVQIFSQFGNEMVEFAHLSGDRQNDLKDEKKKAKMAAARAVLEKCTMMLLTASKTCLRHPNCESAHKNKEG
# T4: Flag-α-Catulin wild-type (UniProt Q9UBT7)
# T4 sequence: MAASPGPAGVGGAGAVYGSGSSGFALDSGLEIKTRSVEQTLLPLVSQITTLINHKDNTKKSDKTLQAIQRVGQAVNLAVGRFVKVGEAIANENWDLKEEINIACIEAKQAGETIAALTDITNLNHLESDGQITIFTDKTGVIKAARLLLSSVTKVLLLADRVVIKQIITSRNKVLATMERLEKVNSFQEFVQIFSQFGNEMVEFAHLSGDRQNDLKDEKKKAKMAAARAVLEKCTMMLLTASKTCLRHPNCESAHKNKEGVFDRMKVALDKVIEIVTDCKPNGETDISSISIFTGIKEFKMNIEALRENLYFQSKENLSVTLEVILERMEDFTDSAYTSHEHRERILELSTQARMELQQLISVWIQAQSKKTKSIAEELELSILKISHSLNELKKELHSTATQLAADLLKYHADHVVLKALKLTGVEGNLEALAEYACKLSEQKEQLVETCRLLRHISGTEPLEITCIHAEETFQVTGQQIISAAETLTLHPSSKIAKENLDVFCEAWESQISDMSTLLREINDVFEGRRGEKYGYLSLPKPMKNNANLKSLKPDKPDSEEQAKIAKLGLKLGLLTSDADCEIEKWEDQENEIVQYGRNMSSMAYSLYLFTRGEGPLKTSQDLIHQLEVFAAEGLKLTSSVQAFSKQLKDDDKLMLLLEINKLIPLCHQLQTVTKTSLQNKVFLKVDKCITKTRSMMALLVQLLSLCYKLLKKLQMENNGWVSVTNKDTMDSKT
# What was measured:
# [1] = target: T1, endogenous α-Catulin (human (endogenous in CL1-5)); test: co-IP; α-Catulin immunoprecipitated from CL1-5 cells treated with 2 μM OSU-T315 (ILK inhibitor); Western blot
# [2] = target: T1, endogenous α-Catulin (human (endogenous in CL1-5)); test: co-IP; endogenous proteins; CL1-5 lysate (M-PER), 1 mg lysate with 1 μg anti-α-Catulin or anti-KLF5 antibody, protein A magnetic beads, 4 °C; Western blot
# [3] = target: T2, α-Catulin (yeast two-hybrid bait); test: two-hybrid; S. cerevisiae strain AH109; α-Catulin as bait; growth on histidine-deficient plates and β-galactosidase activity
# [4] = target: T3, Flag-α-Catulin-ΔC (1-260); test: co-IP; CL1-0 cells cotransfected with HA-KLF5 full length and Flag-α-Catulin wild-type or fragments; anti-Flag immunoprecipitation, blot with anti-KLF5
# [5] = target: T4, Flag-α-Catulin wild-type; test: as above
# [6] = target: Flag-KLF5 wild-type (UniProt Q13887); test: co-IP; CL1-0 cells cotransfected with α-Catulin-GFP and Flag-KLF5 wild-type or truncated mutants; anti-Flag immunoprecipitation, blot with anti-α-Catulin
# [7] = target: Flag-KLF5-ΔC (UniProt Q13887); test: as above
molecule,measurement,setting,value
endogenous KLF5 (from UniProt Q13887 1-457),binding,[1],no binding (condition: with 2 μM OSU-T315)
same,binding,[2],binds
KLF5 (yeast two-hybrid prey) (from UniProt Q13887 1-457),binding,[3],binds
"integrin-linked kinase (ILK), endogenous (from UniProt Q13418 1-452) (enzyme)",binding,[1],no binding (condition: with 2 μM OSU-T315)
same,binding,[2],binds
HA-tagged full-length KLF5 (from UniProt Q13887 1-457),binding,[4],binds
same,binding,[5],binds
"GFP-tagged full-length α-Catulin (protein, UniProt Q9UBT7 1-734) MAASPGPAGVGGAGAVYGSGSSGFALDSGLEIKTRSVEQTLLPLVSQITTLINHKDNTKKSDKTLQAIQRVGQAVNLAVGRFVKVGEAIANENWDLKEEINIACIEAKQAGETIAALTDITNLNHLESDGQITIFTDKTGVIKAARLLLSSVTKVLLLADRVVIKQIITSRNKVLATMERLEKVNSFQEFVQIFSQFGNEMVEFAHLSGDRQNDLKDEKKKAKMAAARAVLEKCTMMLLTASKTCLRHPNCESAHKNKEGVFDRMKVALDKVIEIVTDCKPNGETDISSISIFTGIKEFKMNIEALRENLYFQSKENLSVTLEVILERMEDFTDSAYTSHEHRERILELSTQARMELQQLISVWIQAQSKKTKSIAEELELSILKISHSLNELKKELHSTATQLAADLLKYHADHVVLKALKLTGVEGNLEALAEYACKLSEQKEQLVETCRLLRHISGTEPLEITCIHAEETFQVTGQQIISAAETLTLHPSSKIAKENLDVFCEAWESQISDMSTLLREINDVFEGRRGEKYGYLSLPKPMKNNANLKSLKPDKPDSEEQAKIAKLGLKLGLLTSDADCEIEKWEDQENEIVQYGRNMSSMAYSLYLFTRGEGPLKTSQDLIHQLEVFAAEGLKLTSSVQAFSKQLKDDDKLMLLLEINKLIPLCHQLQTVTKTSLQNKVFLKVDKCITKTRSMMALLVQLLSLCYKLLKKLQMENNGWVSVTNKDTMDSKT",binding,[6],binds
same,binding,[7],no binding
